Measured values: patent publication US20240329043A1, “METHOD FOR STRATIFICATION AND TREATMENT OF MULTIPLE SCLEROSIS” (Universität Zurich, priority 2021, published 2024)

What follows are sequences tested on CSF-infiltrating CD4+ T cells from MS patients. Conditions: peptide 10 μM; 105 MS patients; patient positive if mean IFN-γ ≥20 pg/ml and at least 3 of 4 wells positive.

**Q.** How did the “Positive patients % IFNγ release” value turn out when “GQFRVIGPRHPIRALVGDEV (listed as Homo sapiens) [MOG (1-20)]” was run?
**A.** 1.90%

**Q.** “HCLGKWLGHPDKFVGI (listed as Homo sapiens) [PLP (139-154)]” was tested. Which “Positive patients % IFNγ release” value did it give?
**A.** 3.80%

**Q.** Which “Positive patients % IFNγ release” value does the source give for “AQGTLSKIFKLGGRDSRSGSPMARR (listed as Homo sapiens) [MBP (146-170)]” here?
**A.** 2.85%

**Q.** Which “Positive patients % IFNγ release” value does the source give for “PHNSNFGYSYAKRMI (listed as Homo sapiens) [GDP-L-FS (136-150)]” here?
**A.** 7.62%

**Q.** With “LSRFSWGAEGQRPGFGYGG (listed as Homo sapiens) [MBP (111-129)]” as the sequence, how does the “Positive patients % IFNγ release” value read?
**A.** 4.76%

**Q.** How did the “Positive patients % IFNγ release” value turn out when “YGCTFTAVIPTNVFG (listed as Homo sapiens) [GDP-L-FS (161-175)]” was run?
**A.** 5.71%

**Q.** “MEVGWYRPPFSRVVHLYRNGK (listed as Homo sapiens) [MOG (35-55)]” was tested. Which “Positive patients % IFNγ release” value did it give?
**A.** 12.38%

**Q.** For “EEDEVSIKEAAEAVV (listed as Homo sapiens) [GDP-L-FS (246-260)]”, which “Positive patients % IFNγ release” value is on record?
**A.** 8.57%

**Q.** Which “Positive patients % IFNγ release” value does the source give for “TAQTRALFEKVQPTH (listed as Homo sapiens) [GDP-L-FS (51-65)]” here?
**A.** 5.71%

**Q.** With “KYLATASTMDHARHGFLPRH (listed as Homo sapiens) [MBP (13-32)]” as the sequence, how does the “Positive patients % IFNγ release” value read?
**A.** 1.90%

**Q.** “FRFTPFKQAVKETCA (listed as Homo sapiens) [GDP-L-FS (296-310)]” was tested. Which “Positive patients % IFNγ release” value did it give?
**A.** 11.42%
